From the supplement of paper PMC10126150
Sequences with one replicate were seen in a single cluster, so their values are uncertain.
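Also: ATP exposure 15 min at 22 °C before imaging.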

Each sequence was assayed on ATP (assay: switch fluorescence ratio, 500 uM ATP over buffer (Cy3 cluster intensity, sum of 5 cycles each) (fold (ratio)); higher = stronger signal-on switching upon ATP binding; sequences stand for … in TCGTCGGCAGCGTCAGATGTGTATAAGAGACAGTTTTTTTTTTTTTTTTTTTTTTTTT…TC). Details: aptamer strand: ATP DNA aptamer (quencher-CACCTGGGGGAGTATTGCGGAGGAAGG + anchor), 100 nM annealed; ATP concentration: 500 uM; one replicate.
Outline: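 Switching-strand clusters labelled with Cy3 on a modified Illumina MiSeq flow-cell were annealed to 100 nM quencher-labelled ATP aptamer, imaged in selection buffer, and re-imaged after 15 min with 500 uM ATP at 22 °C. This was done over five cycles with NaOH stripping and re-annealing in between. The fluorescence ratio is summed target-cycle over summed buffer-cycle Cy3 intensity per cluster, averaged per switch-domain sequence, excluding clusters outside 100-1000 RFU.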
TGTGTAGGGC was tested, and the switch fluorescence ratio was 1.05. TGTGTAGTTA was tested, and the switch fluorescence ratio was 0.971. Sequence TGTGTATCGC has a switch fluorescence ratio of 1.02. Work on TGTGTATTGA yielded a switch fluorescence ratio of 1.01. For TGTGTCGGGG, the switch fluorescence ratio was 0.995. In the case of TGTGTCGGTT, the switch fluorescence ratio was 0.967. TGTGTGAACG showed a switch fluorescence ratio of 0.992. For TGTGTTAGCG, the switch fluorescence ratio was 0.97. Work on TGTGTTGTAG yielded a switch fluorescence ratio of 1. TGTGTTTGTG gave a switch fluorescence ratio of 0.993. In the case of TGTTAAAGTA, the switch fluorescence ratio was 0.958. TGTTAATAGG showed a switch fluorescence ratio of 0.993. TGTTACGTTC gave a switch fluorescence ratio of 0.993. TGTTACTTG gave a switch fluorescence ratio of 0.994. With TGTTAGATCT the switch fluorescence ratio was 0.99. Work on TGTTAGGGAA yielded a switch fluorescence ratio of 0.991. Sequence TGTTATCCTG has a switch fluorescence ratio of 0.986. With TGTTATCGTG the switch fluorescence ratio was 0.973. With TGTTATGACA the switch fluorescence ratio was 1.01. TGTTATTCTG was tested, and the switch fluorescence ratio was 1.05. With TGTTCAAGGC the switch fluorescence ratio was 1.07. In the case of TGTTCAGATT, the switch fluorescence ratio was 1.03. TGTTCATTCA gave a switch fluorescence ratio of 0.992. For TGTTCCCCGA, the switch fluorescence ratio was 1.01. In the case of TGTTGAATTG, the switch fluorescence ratio was 0.964. TGTTGAGGCC gave a switch fluorescence ratio of 0.914. Work on TGTTGCATAT yielded a switch fluorescence ratio of 0.987. For TGTTGCATGA, the switch fluorescence ratio was 1.02. With TGTTGCATGG the switch fluorescence ratio was 0.999. TGTTGGACCT showed a switch fluorescence ratio of 1.22. With TGTTGGCGTC the switch fluorescence ratio was 0.943. With TGTTGGGCGT the switch fluorescence ratio was 1.01. TGTTGGGG gave a switch fluorescence ratio of 1.02. TGTTGGGT was tested, and the switch fluorescence ratio was 1.04. With TGTTGTAGTA the switch fluorescence ratio was 1.06. TGTTGTGTCT showed a switch fluorescence ratio of 1.01. With TGTTTCCAGT the switch fluorescence ratio was 1.02. In the case of TGTTTCGGCA, the switch fluorescence ratio was 1. For TGTTTCGTAA, the switch fluorescence ratio was 1.06. For TGTTTCGTTA, the switch fluorescence ratio was 0.997. Sequence TGTTTGAGTG has a switch fluorescence ratio of 1.05. TGTTTGCCTT was tested, and the switch fluorescence ratio was 0.995. For TGTTTGTTGC, the switch fluorescence ratio was 0.975. Work on TGTTTTAT yielded a switch fluorescence ratio of 1.03. Work on TGTTTTGGC yielded a switch fluorescence ratio of 1.01. With TTAAAAACAA the switch fluorescence ratio was 1.02. For TTAAAACGG, the switch fluorescence ratio was 0.93. Sequence TTAAACCACT has a switch fluorescence ratio of 1.05. Sequence TTAAACCGAA has a switch fluorescence ratio of 1.12. TTAAACCTTA gave a switch fluorescence ratio of 1.49. TTAAAGACAG showed a switch fluorescence ratio of 1.02. TTAAAGATT gave a switch fluorescence ratio of 0.99. TTAAAGCCAT was tested, and the switch fluorescence ratio was 1.08. In the case of TTAAATAGAA, the switch fluorescence ratio was 1.01. In the case of TTAAATGGCG, the switch fluorescence ratio was 1.02. TTAACAAATT was tested, and the switch fluorescence ratio was 0.982. TTAACAAGTG showed a switch fluorescence ratio of 0.956. With TTAACATACC the switch fluorescence ratio was 0.985. For TTAACATGCA, the switch fluorescence ratio was 1.02. With TTAACCCGTT the switch fluorescence ratio was 0.986. In the case of TTAACCTACG, the switch fluorescence ratio was 1.5. TTAACCTATA showed a switch fluorescence ratio of 1.05. With TTAACGAATT the switch fluorescence ratio was 1.08. Sequence TTAACGAGGA has a switch fluorescence ratio of 1.01. TTAACGGCGG showed a switch fluorescence ratio of 0.966. With TTAACGTAA the switch fluorescence ratio was 1.25. Work on TTAACTAGCT yielded a switch fluorescence ratio of 1.02. For TTAACTGCAG, the switch fluorescence ratio was 0.991. TTAAGACAAG was tested, and the switch fluorescence ratio was 1.02. TTAAGAGAAA was tested, and the switch fluorescence ratio was 0.974. With TTAAGCTCCT the switch fluorescence ratio was 0.997. Work on TTAAGTATAA yielded a switch fluorescence ratio of 1. In the case of TTAAGTATGG, the switch fluorescence ratio was 0.943. Sequence TTAATAGCTG has a switch fluorescence ratio of 1.03. TTAATCCTAA gave a switch fluorescence ratio of 1.01. Sequence TTAATGCGAT has a switch fluorescence ratio of 1.03. Work on TTAATGCGGA yielded a switch fluorescence ratio of 0.987. TTAATGCTTA was tested, and the switch fluorescence ratio was 0.995. Work on TTAATGTTGC yielded a switch fluorescence ratio of 1.08. Sequence TTAATTACAT has a switch fluorescence ratio of 1.02. In the case of TTAATTCCGG, the switch fluorescence ratio was 1.01. With TTAATTTAAC the switch fluorescence ratio was 0.988. In the case of TTACAAGCAC, the switch fluorescence ratio was 1.5. For TTACAATCTA, the switch fluorescence ratio was 0.929. With TTACAATTGT the switch fluorescence ratio was 1. Sequence TTACACAGAG has a switch fluorescence ratio of 1.06. TTACACCGAC showed a switch fluorescence ratio of 1.53. TTACACGGG gave a switch fluorescence ratio of 1. In the case of TTACACTGTC, the switch fluorescence ratio was 1.09. For TTACAGCTGG, the switch fluorescence ratio was 0.983. Work on TTACAGCTTA yielded a switch fluorescence ratio of 1.07. Sequence TTACATTACT has a switch fluorescence ratio of 1.36. For TTACATTCCT, the switch fluorescence ratio was 1.41. Work on TTACCAAAGA yielded a switch fluorescence ratio of 1.01. TTACCAGGTC gave a switch fluorescence ratio of 1.17. With TTACCGAACA the switch fluorescence ratio was 1.07. TTACCGGGTT showed a switch fluorescence ratio of 1.05. TTACCTAATA gave a switch fluorescence ratio of 1.04. Sequence TTACGAAGGA has a switch fluorescence ratio of 0.991. TTACGACTTG gave a switch fluorescence ratio of 1.01.
